# Laboratory results published in PubChem BioAssay AID504332 (National Center for Advancing Translational Sciences (NCATS), 2011).
# The whole screen tested about 350,000 compounds, of which about 31,000 (8.9%) were called active. Inconclusive means that the source gave no clear call. Such entries were picked first, then a sample of the others. Calls follow the shape of the dose curve; as a rule, active = well fitted inhibition curve with a large enough effect; inconclusive = small, poorly fitted or top-dose-only effect; inactive = no such curve, though single readings can be large or run the other way. Potencies of inconclusive entries are doubtful fits and often do not repeat.
# Biological target: Histone-lysine N-methyltransferase EHMT2 (Homo sapiens) (UniProt Q96KQ7)
# Assay: qHTS Assay for Inhibitors of Histone Lysine Methyltransferase G9a; also: nearly all actives have a fitted effect of over 75% in size
# Settings: G9a H3K9 monomethylation, AlphaScreen, 2 h; activity, negative = inhibition: at 59 µM (top of the series) unless noted
# Summary of the method: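 Compounds were preincubated with 20 nM G9a for 15 min, after which biotinylated H3K9 peptide (500 nM) and SAM (20 uM) started a 2 h room-temperature reaction. Monomethylated product was quantified by antibody-based AlphaScreen chemiluminescence.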
# % is scaled to controls: 0 for no effect and ±100 for the full control effect; potency is read from the fitted curve at half-maximal effect; tags tell the direction and shape of the fitted curve.
# Sequence of UniProt Q96KQ7 (Q96KQ7 whole entry, looked up): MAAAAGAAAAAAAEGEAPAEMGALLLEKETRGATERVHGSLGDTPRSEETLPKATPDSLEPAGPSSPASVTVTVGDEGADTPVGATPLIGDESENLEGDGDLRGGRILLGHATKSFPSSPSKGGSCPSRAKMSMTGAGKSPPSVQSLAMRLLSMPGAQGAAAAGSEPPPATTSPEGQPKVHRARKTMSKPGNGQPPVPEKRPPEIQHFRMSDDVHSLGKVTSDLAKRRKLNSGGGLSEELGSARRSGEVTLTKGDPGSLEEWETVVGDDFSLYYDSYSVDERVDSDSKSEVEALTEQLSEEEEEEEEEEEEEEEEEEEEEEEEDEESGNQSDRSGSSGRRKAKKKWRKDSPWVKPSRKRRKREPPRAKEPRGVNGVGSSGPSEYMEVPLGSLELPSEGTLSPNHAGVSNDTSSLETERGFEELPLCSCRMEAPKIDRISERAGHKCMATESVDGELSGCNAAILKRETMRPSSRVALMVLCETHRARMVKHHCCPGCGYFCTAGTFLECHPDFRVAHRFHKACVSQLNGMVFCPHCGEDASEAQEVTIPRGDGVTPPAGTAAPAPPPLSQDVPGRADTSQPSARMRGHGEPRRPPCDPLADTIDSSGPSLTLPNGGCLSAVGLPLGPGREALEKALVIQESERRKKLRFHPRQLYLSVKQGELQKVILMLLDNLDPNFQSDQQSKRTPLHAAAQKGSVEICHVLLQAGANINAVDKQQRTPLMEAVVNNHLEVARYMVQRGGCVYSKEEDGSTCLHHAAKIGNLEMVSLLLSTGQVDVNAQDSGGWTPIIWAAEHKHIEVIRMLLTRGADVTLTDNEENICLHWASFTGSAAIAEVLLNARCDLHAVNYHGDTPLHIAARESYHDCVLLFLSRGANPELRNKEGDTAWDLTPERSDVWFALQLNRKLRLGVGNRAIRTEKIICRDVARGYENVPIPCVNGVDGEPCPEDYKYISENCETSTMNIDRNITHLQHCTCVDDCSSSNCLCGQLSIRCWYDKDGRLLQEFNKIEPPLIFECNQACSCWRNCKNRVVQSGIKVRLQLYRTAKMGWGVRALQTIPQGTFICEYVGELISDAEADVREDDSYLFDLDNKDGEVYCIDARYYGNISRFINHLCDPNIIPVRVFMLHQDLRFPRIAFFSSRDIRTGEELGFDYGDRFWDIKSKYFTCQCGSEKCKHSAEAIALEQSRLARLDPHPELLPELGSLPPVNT
Compound,Potency,"activity, negative = inhibition"
COc1ccc(-c2cc(C3CCNCC3)[nH]n2)cc1,"inconclusive: 50.1 µM [inhibitor, partial curve]",–
Cn1c(CSCCOc2ccccc2)n[nH]c1=S,active: 10 µM,–
COc1cc(/C=N/NC(=O)c2ccc3c(c2)OCO3)ccc1O,"inconclusive: 17.8 µM [inhibitor, full curve]",–
Cc1cc(C)n2nc(C(=O)NCc3ccccc3)cc2n1,"inconclusive: 14.1 µM [inhibitor, partial curve, poor fit]",–
C/C(=N\N(Cc1ccccc1)c1ccccc1)c1ccncc1,"inconclusive: 44.7 µM [inhibitor, partial curve, poor fit]",–
COc1cc(/C=C2/C(=O)c3cccc([N+](=O)[O-])c3C2=O)c(Br)cc1O,active: 10 µM,–
CCOc1ccc(CNC(=O)C2Cc3cc(S(=O)(=O)N4CCCCCC4)ccc3N2C(C)=O)cc1 (stereo not given),"inconclusive: 39.8 µM [inhibitor, single point]",–
CCC(C(=O)NCCCN(CC)CC)n1ncn2c(cc3occc32)c1=O (stereo not given),"inconclusive: 39.8 µM [inhibitor, partial curve, poor fit]",–
COc1ccc(C)cc1NC(=O)C1CCN(S(=O)(=O)c2c(C)noc2C)CC1,–,inactive: 15.8% [at 102 µM]
COC(=O)c1ccccc1N/C=C1\CCc2c(c(C)nn2-c2ccccn2)C1=O,–,inconclusive: -99.6% [inhibitor]
CCCCN(C(=O)c1cc2c(s1)CCC2)c1c(N)n(CCC)c(=O)[nH]c1=O,active: 44.7 µM,–
CC(=O)c1cc(C#N)c(NCc2ccccc2)nc1C,–,inactive: 6.28% [at 102 µM]
O=C(O)CCCN1C(=O)C2C3CC(C2C1=O)C1C(c2ccccc2)c2sc(=O)n(-c4ccccc4)c2SC31 (stereo not given),"inconclusive: 79.4 µM [inhibitor, single point]",–
COc1ccc(N(CC(=O)NCCSCc2ccco2)S(=O)(=O)c2ccccc2)cc1,–,inactive: -40.8% [at 102 µM]
O=C(/C=C/c1ccc2c(c1)OCO2)NCc1ccco1,"inconclusive: 79.4 µM [inhibitor, single point]",–
CCn1c2ccccc2c2cc(NC(=O)COC(=O)c3ccc(O)cc3)ccc21,"inconclusive: 50.1 µM [inhibitor, partial curve, poor fit]",–
Cc1cc(C)cc(N2C(=O)C3NN=C(C(=O)OCc4ccccc4)C3C2=O)c1 (stereo not given),–,inactive: -12.5% [at 102 µM]
O=C(CNCc1ccc(Cl)cc1)Nc1ccc(C(=O)N2CCCCCC2)cc1,active: 7.94 µM,–
NC(=O)c1nc(C2CCCCC2)nc2c1[nH]c(=O)n2-c1ccc(F)cc1,"inconclusive: 25.1 µM [inhibitor, partial curve, poor fit]",–
O=C(Nc1nnc(S(=O)(=O)N2CCOCC2)s1)c1ccc(F)cc1,inactive,–
CC1CN(CC(O)COC(c2ccccc2)c2ccccc2)CC(C)O1 (stereo not given),active: 35.5 µM,–
COc1ccc(NC(=O)CC2Oc3ccccc3NC2=O)cc1 (stereo not given),"inconclusive: 35.5 µM [inhibitor, partial curve, poor fit]",–
COc1ccc(CNC(=O)CS(=O)Cc2nc(-c3ccccc3C)oc2C)cc1 (stereo not given),"inconclusive: 89.1 µM [inhibitor, single point]",–
Cc1ccc(S(=O)(=O)Cc2ccc(C(=O)O)o2)cc1,active: 12.6 µM,–

Compound,Potency,"activity, negative = inhibition"
O=C(c1ccc(S(=O)(=O)Nc2ccccc2)cc1)N1CCCC(C(F)(F)F)C1 (stereo not given),"inconclusive: 39.8 µM [inhibitor, partial curve]",–
O=C(CSCc1ccc([N+](=O)[O-])cc1)Nc1ccccc1C(=O)O,"inconclusive: 79.4 µM [inhibitor, single point]",–
Cc1ccc(C2C3=C(CC(C)(C)CC3=O)NC3=C2C(=O)CC(C)(C)C3)o1,–,inactive: -22.2%
COc1ccc(C2NC(=O)N(C)C3=C2C(=O)N(c2ccc(C)cc2)C3)cc1 (stereo not given),–,inactive: 1.58%
O=C(c1cccc([N+](=O)[O-])c1)N1CCCC(C(=O)N2CCN(c3ccccc3)CC2)C1 (stereo not given),–,inactive: 28.2% [at 102 µM]
O=C1c2oc3ccc(Cl)cc3c(=O)c2C(c2cccc(Br)c2)N1CCO (stereo not given),active: 50.1 µM,–
CCOc1ccccc1N1CCN(C(=O)c2cc3c(C)cc(C)cc3[nH]2)CC1,"inconclusive: 50.1 µM [inhibitor, partial curve, poor fit]",–
CC(NC(=O)CSc1nc(=O)cc(N)n1CCc1ccccc1)c1ccccc1 (stereo not given),–,inactive: -10.6% [at 102 µM]
O=C(Nc1ccc2[nH]c(=S)sc2c1)Nc1ccccc1F,active: 44.7 µM,–
Cc1cc(/C=C2\C(=N)N3N=C(CC(=O)N4CCOCC4)SC3=NC2=O)c(C)n1-c1ccccc1,"inconclusive: 89.1 µM [inhibitor, single point]",–
CCCOc1ccc(CCc2n[nH]c(=S)n2-c2ccccc2)cc1,active: 5.62 µM,–
CCCCn1c(N)c(N(CCC)C(=O)C2CCCC2)c(=O)[nH]c1=O,"inconclusive: 31.6 µM [inhibitor, single point]",–
CCCN(C(=O)COC(=O)CSc1ccc(C(N)=O)cc1[N+](=O)[O-])C1CCS(=O)(=O)C1 (stereo not given),"inconclusive: 89.1 µM [inhibitor, single point]",–
Cc1ccc2c(c1)c(C)cc(=O)n2CCC(=O)O,"inconclusive: 35.5 µM [inhibitor, single point]",–
O=c1cc(NCc2ccc3c(c2)OCO3)[nH]c(=O)n1-c1ccc(Cl)cc1,"inconclusive: 3.16 µM [inhibitor, partial curve, poor fit]",–
Cc1ccccc1-c1noc(-c2ccccc2OCC(=O)Nc2ccccc2[N+](=O)[O-])n1,active: 14.1 µM,–
Cc1nn(C)c(C)c1Nc1ccc(N2C(=O)C3CC=CCC3C2=O)cc1[N+](=O)[O-] (stereo not given),"inconclusive: 44.7 µM [inhibitor, partial curve]",–
NS(=O)(=O)c1ccc(CCNC(=O)c2ccc(Br)s2)cc1,"inconclusive: 35.5 µM [inhibitor, partial curve, poor fit]",–
COCCn1c(SCC(=O)c2ccc(Cl)cc2)nnc1C(C)C,active: 11.2 µM,–
CCN(CC)S(=O)(=O)c1ccc2oc(C(=O)NCCN3CCOCC3)c(C)c2c1,–,inactive: -6.3%
CN(C)/N=C/c1ccc(/C=N/NC(N)=S)o1,"inconclusive: 28.2 µM [inhibitor, full curve, poor fit]",–
CN(Cc1ccccc1)C(=O)COC(=O)c1ccc(-n2cnnn2)cc1,"inconclusive: 89.1 µM [inhibitor, single point]",–
Nc1c(C(=O)OCC(=O)Nc2ccc(Cl)cc2[N+](=O)[O-])[nH]c(=O)[nH]c1=O,–,inconclusive: -83% [inhibitor]
CC1CCN(c2c([N+](=O)[O-])c(=O)oc3ccccc23)CC1,"inconclusive: 39.8 µM [inhibitor, single point]",–

Compound,Potency,"activity, negative = inhibition"
S=C(NCc1cccs1)Nc1cccc(Cl)c1Cl,–,inactive: -6.56% [at 102 µM]
Cc1cc(C(F)(F)F)nn1C(=O)c1cccnc1Cl,"inconclusive: 15.8 µM [inhibitor, single point]",–
C=CCOc1ccc(C2C(C(=O)c3ccco3)=C(O)C(=O)N2c2nnc(C)s2)cc1 (stereo not given),–,inactive: -6.74% [at 12.7 µM]
Cc1ccccc1CSc1nc2cccnc2n1Cc1ccc(C(=O)NCCc2cccs2)cc1,"inconclusive: 22.4 µM [inhibitor, partial curve, poor fit]",–
CC(NC(=O)CNC(=O)c1ccco1)c1ccc(S(N)(=O)=O)cc1 (stereo not given),"inconclusive: 89.1 µM [inhibitor, single point]",–
CCC(=O)Nc1ccc(C(=O)CSc2nc3ccccc3[nH]2)cc1,"inconclusive: 22.4 µM [inhibitor, single point]",–
COc1cc(CNCc2ccccn2)ccc1OCc1ccccc1Cl,"inconclusive: 1.41 µM [inhibitor, full curve]",–
CC1CCCN(CC(O)COC(c2ccccc2)c2ccccc2)C1 (stereo not given),–,inactive: -6.03% [at 102 µM]
O=C(NC1CCCCC1)c1ccc(-c2ccc(Cl)cc2)o1,active: 44.7 µM,–
Cc1ccc2oc(=O)n(CCNC(=O)Nc3ccc(C)c(F)c3)c2c1,–,inactive: 11.1%
COc1ccccc1C1C=C(c2ccc(Cl)cc2)Nc2nc(-c3ccc(Cl)cc3)nn21 (stereo not given),"inconclusive: 3.55 µM [inhibitor, partial curve, poor fit]",–
O=c1[nH]c2ccc(S(=O)(=O)Nc3ccccc3O)cc2[nH]1,active: 2.24 µM,–
C=CCOc1cccc(C(=O)Nc2ncn[nH]2)c1,"inconclusive: 28.2 µM [inhibitor, partial curve, poor fit]",–
O=C(Nc1ccc(Cl)c(S(=O)(=O)N2CCCC2)c1)c1nn(CCO)c(=O)c2ccccc12,active: 50.1 µM,–
CCCc1cc(C(=O)Cc2ccc(C(=O)OCC)o2)c(O)cc1O,–,inconclusive: -96% [inhibitor]
CCC(C)NC(=O)CCS(=O)(=O)c1ccc2c(c1)n(C)c(=O)c(=O)n2C (stereo not given),"inconclusive: 35.5 µM [inhibitor, single point]",–
COc1ccc(-c2nc(CN3CCCCC3CCc3ccccn3)c(C)o2)cc1 (stereo not given),"inconclusive: 5.62 µM [inhibitor, full curve, poor fit]",–
NC(=O)N/N=C/c1cn(-c2ccccc2)nc1-c1cccnc1,"inconclusive: 56.2 µM [inhibitor, partial curve]",–
CCn1c(C)c(C)c2cc(C(=O)N3CCc4ccccc4C3)ccc21,active: 44.7 µM,–
Cc1cc(/C=C2\NC(=O)NC2=O)c(C)n1-c1cccnc1,"inconclusive: 89.1 µM [inhibitor, partial curve, poor fit]",–
COC(=O)c1ccccc1NC(=S)N1CCN(c2ccc(OC)cc2)CC1,"inconclusive: 56.2 µM [inhibitor, partial curve, poor fit]",–
COc1ccc(Nc2nc(N)nc(CSc3nc4cc(OC)ccc4s3)n2)cc1,"inconclusive: 28.2 µM [inhibitor, partial curve, poor fit]",–
